Over roughly 33,000 sequences, “E-score (-0.5 to 0.5)” has its median near -0.035; the highest 2% begin near 0.34. Some of the results follow.
molecular target: T1, Mot3 (UniProt P54785); assay: PBM E-score (8-mer binding enrichment) (E-score (-0.5 to 0.5)); higher = stronger / more preferred TF binding; most listed sequences are background and not binding sites; settings: protein concentration: 200 nM; construct: GST-full length
T1 sequence: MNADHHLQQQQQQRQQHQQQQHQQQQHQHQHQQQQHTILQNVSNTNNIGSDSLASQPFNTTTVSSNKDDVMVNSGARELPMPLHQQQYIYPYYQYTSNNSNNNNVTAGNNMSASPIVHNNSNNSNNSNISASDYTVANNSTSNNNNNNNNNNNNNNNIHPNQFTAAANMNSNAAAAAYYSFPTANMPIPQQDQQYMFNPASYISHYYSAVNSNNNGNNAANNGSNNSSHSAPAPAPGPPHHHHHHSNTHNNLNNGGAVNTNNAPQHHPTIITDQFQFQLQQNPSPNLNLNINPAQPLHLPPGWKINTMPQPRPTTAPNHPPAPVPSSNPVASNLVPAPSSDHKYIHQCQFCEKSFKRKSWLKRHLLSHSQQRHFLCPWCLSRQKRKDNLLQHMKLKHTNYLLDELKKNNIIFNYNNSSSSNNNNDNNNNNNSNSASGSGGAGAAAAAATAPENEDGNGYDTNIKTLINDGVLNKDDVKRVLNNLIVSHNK
Method in brief: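 The E-score, a modified Wilcoxon-Mann-Whitney statistic, was computed by the Universal PBM Analysis Suite for every ungapped eight-base word pooled with its reverse complement. Scans behind it were normalised with masliner after bound GST-tagged yeast transcription factors were detected with fluorescent anti-GST. The proteins, at about 100-200 nM, had been applied to universal all-10-mer Agilent arrays made double-stranded by primer extension.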

| Sequence | PBM E-score |
| --- | --- |
| AGGTTTGA | -0.1 |
| AAGAGGAA | 0.221 |
| CTGGTAAG | -0.143 |
| ACATATTA | 0.302 |
| TCAGCGCA | 0.0776 |
| ATGTGTGG | 0.0133 |
| GATGCGCA | -0.151 |
| GGCGGTAC | -0.279 |
| ATTAGTCC | -0.0419 |
| AAGACACC | 0.00535 |
| AAACTAAC | 0.262 |
| AGACAACA | 0.0804 |
| TCTCTCAA | -0.056 |
| ACAAATAT | 0.161 |
| GGAGCGTA | 0.155 |
| ACTCGTTA | 0.0915 |
| AGCGGCAT | -0.0525 |
| CCGACTAG | -0.237 |
| AAATTTAT | 0.118 |
| CTTAATGA | -0.005 |
| GACGATAA | -0.137 |
| GATCTTCC | -0.23 |

| Sequence | PBM E-score |
| --- | --- |
| AATCACGG | -0.101 |
| AGTATCAC | -0.0167 |
| TTCACCAA | 0.128 |
| GTCCAGGA | -0.00926 |
| GCATTTCC | 0.114 |
| ATGAGGAG | -0.194 |
| AGAAGCCA | -0.291 |
| ATCGATGC | 0.116 |
| CCCGTCAC | -0.265 |
| ACGCCAAA | -0.0573 |
| CAAAGCTA | 0.0327 |
| AGCCGTGC | 0.0141 |
| ACTTAATA | 0.242 |
| CCGCGAAA | -0.183 |
| GGATTGAC | -0.0501 |
| CGGCACAG | -0.274 |
| GAGATTTA | 0.00511 |
| AACACTAC | 0.135 |
| ATGCGGAA | -0.0583 |
| CCACACGG | -0.0702 |
| GTCGTACA | 0.109 |
| AGAATCGC | -0.304 |

| Sequence | PBM E-score |
| --- | --- |
| CACTATGC | -0.0288 |
| CAAACCAA | 0.0865 |
| ACACGCGG | 0.252 |
| GCTACACC | -0.0458 |
| ATATAGCA | -0.149 |
| GCCTGGAA | 0.187 |
| ACATGTAG | 0.388 |
| GTTACCCA | -0.138 |
| ATATGCAC | 0.019 |
| AGGTGGTC | -0.232 |
| GATCGGAC | -0.158 |
| ACCTGAGG | -0.121 |
| GCGATAGA | -0.11 |
| AAGATTAC | 0.212 |
| ATCGTTGG | -0.00489 |
| AAGTATCA | -0.0707 |
| ATGATGCA | 0.0819 |
| ATTGCATA | 0.0155 |
| ACACAAAT | 0.184 |
| AAGCATGG | -0.0628 |
| AGCTAACC | -0.152 |
| ACTGATAT | -0.153 |

| Sequence | PBM E-score |
| --- | --- |
| AACACGAG | 0.288 |
| CCGCAGAG | -0.395 |
| CGTTCAGA | -0.143 |
| AGTACAAA | 0.183 |
| CGGCGATA | -0.115 |
| AAACTGCC | -0.144 |
| CGCTACCC | -0.305 |
| CAACACTG | 0.0192 |
| CGATAACA | 0.175 |
| AAGAATGT | 0.143 |
| CGACCCGA | -0.325 |
| CCAGGCGG | -0.0321 |
| AGACGCGC | 0.0991 |
| GGTCCCAC | -0.266 |
| GGGTGGCA | -0.239 |
| AGGTCGAA | 0.00993 |
| CTGCAGGA | 0.291 |
| CATACACG | 0.316 |
| AATAGCGT | 0.0246 |
| TCCGAGAA | -0.173 |
